Test results published in PubChem BioAssay AID686978 (National Center for Advancing Translational Sciences (NCATS), 2013).
Where “and” joins values, the source holds several entries; their conditions need not be identical. Identical values can stand only once. In all, about 420,000 compounds went through this assay and about 64,000 (15%) were called active. Inconclusive results, whose numbers are uncertain, are shown with a selection of clear calls. Calls follow the shape of the dose curve; as a rule, active = well fitted inhibition curve with a large enough effect; inconclusive = small, poorly fitted or top-dose-only effect; inactive = flat fitted curve, though single readings scatter. A potency beside an inconclusive call is a rough fit, not a confirmed value. The source holds several records for some structures; these can differ, active in one and inactive in another.

Assay: qHTS for Inhibitors of human tyrosyl-DNA phosphodiesterase 1 (TDP1): qHTS in cells in absence of CPT; also: nearly all actives have a fitted effect of over 55% in size
Conditions: DT40 Tdp1-/- hTDP1 cells, no CPT, ATP luminescence, 48 h; series mostly up to 46.2 µM
How it was run: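 Chicken DT40 Tdp1-/- cells stably complemented with human TDP1 were seeded at 400 cells/well with DMSO in place of 20 nM camptothecin. After compound pinning, cells grew at least 48 hr at 37 °C; viability read by CellTiter-Glo luminescence.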
Potency is read from the fitted curve at half-maximal effect; tags tell the direction and shape of the fitted curve.

| SMILES | Potency |
| --- | --- |
| COc1ccccc1OP(=O)(Nc1ccc(Br)cc1)Oc1ccccc1OC | inconclusive: 16.4 µM [inhibitor, single point] |
| CCCNC(=O)c1c(N)n(Cc2ccco2)c2nc3ccccc3nc12 | inconclusive: 20.6 µM [inhibitor, single point] |
| COc1cc(C(=O)NN=Cc2ccc(N(CCCl)CCCl)cc2)cc(OC)c1OC | inconclusive: 29.1 µM [inhibitor, single point] |
| O=c1ccc2cc(OC3OC(CO)C(O)C(O)C3O)c(O)cc2o1 (configuration not stated) | inactive |
| Nc1ccccc1C(=O)OCC(=O)Nc1ccc(Br)cc1F | inactive |
| C/C(=N\OC(=O)NC(C)C)c1sc(-c2ccc(Cl)cc2)nc1C | active: 18.4 µM |
| CCCN(CC#CCOc1ccc(OC)cc1)CCC | inconclusive: 29.1 µM [inhibitor, partial curve] |
| CCOC(=O)[C@]12Cc3c(cc(OC)c(OC)c3OC)[C@H]1N(C1CCCCC1)C(=O)c1ccccc12 | active: 3.66 µM |
| COc1ccccc1CN1CCN(C(=O)COc2cccc(C)c2)CC1 | active: 20.6 µM |
| CCN1CCN(c2ccc(N)c(C)c2)CC1 | inconclusive: 23.1 µM [inhibitor, single point] |
| CCOc1ccc(CCNC(=O)c2cnc3sc(N4CCCC4)nn3c2=O)cc1 | active: 2.31 µM |
| CCOc1ccc(NC(=O)c2c(O)[nH]c(=O)[nH]c2=O)cc1 | active: 16.4 µM |
| Cc1[nH]n(-c2ccccc2)c(=O)c1C(c1cccc([N+](=O)[O-])c1O)c1c(C)[nH]n(-c2ccccc2)c1=O | inconclusive: 20.6 µM [inhibitor, single point] |
| N#Cc1cccc(NC(=O)N2CC[C@@]3(CCCN(C(=O)Oc4ccccc4)C3)C2)c1 | inconclusive: 4.61 µM [inhibitor, partial curve] |
| O=C1/C(=C\c2ccccc2)C2OCC=C3CN4CCC56c7ccccc7N1C5C2C3CC46 (configuration not stated) | inconclusive: 20.6 µM [inhibitor, single point] |
| C/C(=N\NC(=O)c1ccccc1)c1c(O)n(C2CCCCC2)c(=O)[nH]c1=O | inactive |
| O=C(c1cc(F)ccc1F)C1CCCN(CCCc2ccccc2)C1 (configuration not stated) | inconclusive: 20.6 µM [inhibitor, single point] |
| Cc1ccccc1-n1nc(C)c2c1NC(=O)CSC2c1ccccc1C(F)(F)F (configuration not stated) | inconclusive: 23.1 µM [inhibitor, single point] |
| COc1cc(C2Nc3c(C)cc(C)cc3-c3cc(C)nn32)cc(OC)c1O (configuration not stated) | active: 4.11 µM |
| CCOc1ccc(CN(CCCl)CCCl)cc1C(=O)OC | active: 4.11 µM |
| COC(=O)C1=C(c2ccccc2)C[C@@H]2CC[C@H]1N2C(=O)NCc1ccc(C(F)(F)F)cc1 | inconclusive: 18.4 µM [inhibitor, single point] |
| CC1=Nc2cc(C(=O)N3CCC4(CC3)OCCO4)ccc2Sc2ccc(Cl)cc21 | inconclusive: 29.1 µM [inhibitor, single point] |
| CC1(C)C(c2ccccc2)=NC(c2cccnc2)=[N+]1[O-] | inconclusive: 29.1 µM [inhibitor, single point] |

| SMILES | Potency |
| --- | --- |
| COC(=O)C1=C(c2cc3ccccc3s2)C[C@@H]2CC[C@H]1N2C(=O)NCCNC(C)=O | inactive |
| CC(=O)[C@@]1(O)CC[C@H]2[C@@H]3CCC4=CC(=O)CC[C@]4(C)C3(F)[C@@H](O)C[C@@]21C (some centres not stated) | inactive |
| CN1CCN(c2ccc(NC(=O)Oc3ccccc3)cc2)CC1 | inactive |
| CC/C(=N\N1CCN(C)CC1)c1c(O)[nH]c(=O)[nH]c1=O | inactive |
| COc1ccc(-n2ncc(C(=O)N3CCN(c4cc(C)ccc4C)CC3)c2C2CCN(C(=O)OC(C)(C)C)CC2)cc1 | active: 14.6 µM |
| COc1ccc(C(=O)C2CCCN(Cc3ccc(C)s3)C2)cc1OC (configuration not stated) | active: 14.6 µM |
| Cc1ccc(NC(=O)CN(C)CC(=O)Nc2cccc(F)c2)cc1[N+](=O)[O-] | active: 1.16 µM |
| CN1C(=O)CN=C(c2ccccc2)c2cc(Cl)ccc21 | inconclusive: 33.5 µM [inhibitor, single point] |
| O=C(c1ccco1)c1cn(Cc2ccccc2)c2ccccc12 | inconclusive: 23.1 µM [inhibitor, single point] |
| COc1ccc(-n2nnnc2C(c2ccnc3ccccc23)N2CCC(n3c(=O)[nH]c4ccccc43)CC2)cc1 (configuration not stated) | inconclusive: 14.6 µM [inhibitor, partial curve, poor fit] |
| O=C(c1cc(F)ccc1F)C1CCCN(Cc2cccc(Cl)c2)C1 (configuration not stated) | inconclusive: 29.1 µM [inhibitor, single point] |
| CC(Cc1ccccc1)NCc1ccccc1Cl (configuration not stated) | inconclusive: 7.5 µM [inhibitor, partial curve, poor fit] |
| CC1=C(C(=O)Nc2ccccc2)S(=O)(=O)CCO1 | inconclusive: 25.9 µM [inhibitor, single point] |
| CN(Cc1ccc(OC(F)F)cc1)C(=O)c1ccccc1Sc1ccccc1C#N | inconclusive: 18.4 µM [inhibitor, single point] |
| COC(=O)C1=C(c2cccc(C#N)c2)C[C@@H]2CC[C@H]1N2C(=O)NCCc1ccccc1 | inconclusive: 29.1 µM [inhibitor, single point] |
| O=C1NC(=O)C2(Cc3ccccc3N3CCOCC32)C(=O)N1c1ccccc1 (configuration not stated) | inconclusive: 25.1 µM [inhibitor, single point] |
| c1ccc(-c2nc(N3CCOCC3)s[n+]2-c2ccccc2)cc1 | inconclusive: 23.1 µM [inhibitor, partial curve, poor fit] |
| CCCCCn1c(=O)c(C(=O)NCCc2ccccc2)c(O)c2ccccc21 | inconclusive: 29.1 µM [inhibitor, single point] |
| CC[C@H](C)/C=C(C)/C=C/C1=CC2=C(Cl)C(=O)[C@](C)(OC(C)=O)C(=O)C2=CO1 | inconclusive: 18.4 µM [inhibitor, single point] |
| CCn1cc(C(=O)O)c(=O)c2cc(F)c(N3CCNCC3)cc21 | inconclusive: 16.4 µM [inhibitor, partial curve, poor fit] and inconclusive: 21.1 µM [inhibitor, single point] |
| O=C(CCCCCCCCCCC(=O)NCc1cccnc1)NCc1cccnc1 | inconclusive: 5.17 µM [inhibitor, partial curve] |
| COC(=O)C1=C(c2cccc(OCc3ccccc3)c2)C[C@@H]2CC[C@H]1N2C(=O)NCc1ccc2[nH]ccc2c1 | inconclusive: 29.1 µM [inhibitor, single point] |
| CCOc1cc(CNCCc2ccccc2F)ccc1OC | inconclusive: 25.9 µM [inhibitor, single point] |

| SMILES | Potency |
| --- | --- |
| COC(=O)C1=C(c2ccc(F)cc2OCc2ccccc2)C[C@@H]2CC[C@H]1N2C(=O)NCc1ccc(OC)c(OC)c1 | inconclusive: 23.1 µM [inhibitor, single point] |
| O=C(c1ccc(Cl)cc1)C1CCCN(Cc2ccon2)C1 (configuration not stated) | inconclusive: 25.9 µM [inhibitor, single point] |
| CCCCn1c(=O)c(C(=O)Nc2cccc(C)c2)c(O)c2ccccc21 | active: 4.61 µM |
| CCCN[C@@H]1C(=O)N2C(C(=O)OCCC)=C(C)CS[C@H]12 | inconclusive: 22.4 µM [inhibitor, single point] and inconclusive: 23.1 µM [inhibitor, single point] |
| COc1ccc(CNc2oc(-c3cccc4ccccc34)nc2P(=O)(OC)OC)cc1 | inconclusive: 25.9 µM [inhibitor, single point] |
| Cc1ccc(C)c(CN2C(=O)c3ccccc3S(=O)(=O)c3ccc(C(=O)N4CCCCCC4)cc32)c1 | inconclusive: 29.1 µM [inhibitor, single point] |
| CC(=O)C12CC(C)=C(C)CC1CC1C3CCC4=CC(=O)CCC4(C)C3CCC12C (configuration not stated) | inconclusive: 25.9 µM [inhibitor, single point] |
| COP(=O)(OC)/C(C=O)=N/Nc1ccc([N+](=O)[O-])cc1 | inactive |
| CC(C)(O)/C=C/C(=O)C(C)(O)C1C(O)CC2(C)C3CC=C4C(C=C(O)C(=O)C4(C)C)C3(C)C(=O)CC12C (configuration not stated) | active: 0.0164 µM |
| CCCCCCC(=O)N/N=C/c1c(O)n(C(C)CC)c(=S)[nH]c1=O (configuration not stated) | active: 9.2 µM |
| O=C(O)c1cccc2c1NC(c1cccc([N+](=O)[O-])c1)C1CC(Sc3ccccc3[N+](=O)[O-])C(Cl)C21 (configuration not stated) | inconclusive: 13 µM [inhibitor, partial curve] |
| CC1C(=O)OC2O[C@]3(C)CC[C@H]4C(C)CCC1[C@]24OO3 (some centres not stated) | active: 1.16 µM |
| O=[N+]([O-])c1ccc(Cl)c(Cl)c1 | inactive |
| O=c1[nH]c(=S)[nH]c(O)c1/C=N/N1CCOCC1 | inactive |
| O=c1[nH]c(=S)n(Cc2ccc(F)cc2)c(O)c1/C=N/N1CCCCCC1 | inconclusive: 8.2 µM [inhibitor, partial curve] |
| O=C(Nc1ccc(OC(=O)N2CCCC2)cc1)N1CCOCC1 | inactive |
| O=C(NCC(c1cccnc1)N1CCN(c2ccc(F)cc2)CC1)Oc1ccccc1 (configuration not stated) | inconclusive: 16.4 µM [inhibitor, partial curve, poor fit] |
| Brc1ccc2[nH]cc(/C=N/N3CCCCC3)c2c1 | active: 14.6 µM |
| CCOC(=O)c1cccc(NC2c3ccccc3C(=O)N2Cc2ccco2)c1 (configuration not stated) | active: 6.51 µM |
| O=C(Nc1ccc(Cl)cc1)N1CC1 | active: 14.6 µM |
| CCOC(=O)[C@]12Cc3cc(OC)ccc3[C@H]1N(C)C(=O)c1ccccc12 | inconclusive: 20.6 µM [inhibitor, single point] |
